According to ChEMBL document CHEMBL1157539, “Thousands of chemical starting points for antimalarial lead identification” (Nature, 2010):
In all, about 13,000 compounds were measured (“IFI”: median about 4, highest 2% from about 17 on). The list shows a part of the results.

Assay: GSK_TCMDC: Inhibition Frequency Index (IFI). The number of non-kinase HTS assays where a compound showed > 50 % inhibition, expressed as a percentage of the number of such assays in which the compound was tested (-0 is zero)
Format: functional

SMILES | IFI
COc1ccccc1Cn1ccnc1SCC(=O)Nc1cc(C(F)(F)F)ccc1Cl | 7.14%
COc1ccc(CC(C)CON2C(N)=NC(N)=NC2(C)C)cc1 (stereo not given) | 4.58%
Cc1cccc(NC(=O)c2ccc(C(=O)NC3CCN(CC4CCCCC4)CC3)cc2)c1 | 1.8%
CSc1ccc(C=CC(=O)NC(=O)c2ccccc2O)cc1 | 3.47%
CCC(CCON1C(N)=NC(N)=NC1(C)C)c1ccc(Cl)c(Cl)c1 (stereo not given) | 5.22%
CC(=O)N(Cc1nc(-c2cc(Cl)c(Cl)s2)cs1)c1c(C)cccc1C | 0.68%
CC(=O)Nc1ccc(OCCN(Cc2ccccc2C(F)(F)F)c2ccc(C#N)c(C(F)(F)F)c2)c(Cl)c1 | 3.17%
CC(=O)Nc1ncc(C(=O)Nc2cccc(-c3ccc(-c4nc5cc(C(F)(F)F)ccc5[nH]4)cc3)c2)s1 | 3.64%
Cc1ccccc1Nc1nc(NCCCO)c2ccccc2n1 | 2.11%
COc1cc2nc(N3CCC(CNC(=O)c4ccc(-c5cccc(C#N)c5)cc4)CC3)nc(N)c2cc1OC | 6.31%
O=C(C=Cc1cccs1)N(CCCn1ccnc1)c1nc2ccc(F)cc2s1 | 2%
C=CCOc1ccc2ccccc2c1CNCCCCCCNCc1c(OCC=C)ccc2ccccc12 | 19.6%
Cc1ccc(CN2CCCN(Cc3cccc(NC(=O)c4cc5ccccc5s4)c3)CC2)cc1 | 10.2%
COc1cc(Nc2ccnc3cc(-c4ccccn4)ccc23)cc(OC)c1OC | 4.23%
CCOC(=O)c1cnc2cc(N3CCCC3)c(Cl)cc2c1OCC | 0.75%
COCCN(C)c1ccc(C(=O)Nc2ccccc2)cc1NS(=O)(=O)Cc1ccccc1 | 1.96%
CS(=O)(=O)Cc1ccc(Nc2nccc(-c3c(-c4cccc(NC(=O)c5c(F)cccc5F)c4)nn4ncccc34)n2)cc1 | 5.8%
COc1cccc(CNC(=O)[C@H]2CNCCN2C(=O)CCCc2ccccc2)c1 | 0%
CC(CN(C)C)C(=O)Nc1ccc(-c2csc(-c3nc4ccccc4[nH]3)c2)cc1 (stereo not given) | 2.68%
O=C(Nc1ccc(Br)c(C(F)(F)F)c1)c1cccc([N+](=O)[O-])c1 | 3.45%
O=C(/C=C/c1ccc(Cl)c(Cl)c1)NCCCCCN1CC[C@H](NC(=O)c2sc3ccccc3c2Cl)C1 | 6.77%
O=C(Cc1cccc(O)c1)NCC(Cc1ccc(O)cc1)c1ccccc1 (stereo not given) | 0%
N#CCCN1CCN(Cc2ccc(-c3cccc(-c4nc5cc(F)ccc5[nH]4)c3)cc2)CC1 | 4.23%

SMILES | IFI
COc1cc(Cc2cnc(N)nc2N)ccc1OCc1csc(-c2ccc(Cl)cc2)n1 | 12%
O=C(/C=C/c1ccc(Cl)c(Cl)c1)N1CCC(CCN2CCc3[nH]c4ccccc4c3C2)CC1 | 10.7%
C=CCn1c(Sc2ccc(C#N)c([N+](=O)[O-])c2)nnc1-c1cc(OC)cc(OC)c1 | 2.14%
CCOc1ccccc1NC(=O)Nc1ccc2c(c1)CCN(C1CCC1)CC2 | 0.74%
COc1ccc(C(C(=O)NC2CCN(C[C@H](O)c3ccnc4ccc(OC)cc34)CC2)N2CCN(c3ccc(Cl)c(Cl)c3)CC2)cc1 (stereo not given in full) | 2.22%
COc1ccc2nc(C)cc(N/N=C/C=C/c3ccccc3)c2c1 | 2.22%
Cc1cc(N/N=C/c2cccc([N+](=O)[O-])c2)c2ccc(C(F)(F)F)cc2n1 | 0.91%
COc1ccc(CNC(=O)c2cnc3c(O)cccc3c2Nc2cccc(NC(=O)c3ccc(Cl)c(Cl)c3)c2)cc1 | 7.81%
COc1ccc2nccc([C@@H](O)CN3CCC(NCc4ccc5c(c4)NC(=O)C(C)(C)O5)CC3)c2c1 | 0.73%
Cn1c(NC(=O)C2CCC(CNC(=O)c3ccc(O)c(-c4cccc([N+](=O)[O-])c4)c3)CC2)nc2ccccc21 (stereo not given) | 1.48%
CCOC(=O)c1ccc(N(CCCN(CCCN(c2ccc(C(=O)OCC)cc2)S(=O)(=O)c2ccc(C)cc2)CCc2ccc(O)cc2)S(=O)(=O)c2ccc(C)cc2)cc1 | 3.68%
CCCCCCCc1c(C)nc2ccccc2c1O | 2.22%
CC(C)C1C(=O)N(S(C)(=O)=O)C2CCN(C(=O)c3ccc(CN4CCCCC4)c([N+](=O)[O-])c3)C12 (stereo not given) | 0.75%
Cc1cccc2nc(-c3ccc(-c4ccc(CN5CCC(N)C5)cc4)s3)[nH]c12 (stereo not given) | 2.78%
CN(C)Cc1ccc2cc(NC(=O)c3ccc(-c4ccc(Cl)cc4)cc3)ccc2n1 | 11.5%
Fc1ccc(-c2cc(NCCCn3ccnc3)nc(-c3cccnc3)n2)cc1 | 2.78%
CC(C)Oc1cc2c(cc1NS(=O)(=O)c1ccc(-c3ccc(Cl)s3)cc1F)CCN(C)CC2 | 11.1%
O=C(Nc1ccc(-c2cccc(-c3nc4cc(F)ccc4[nH]3)c2)cc1)Nc1ccsc1 | 6%
CCc1cc(NC(=O)Nc2ccnc3ccccc23)ccc1OC | 4.55%
O=C(NCCCCNCC(Cc1cccc(O)c1)c1ccccc1)c1ccc(NC(=O)c2ccc(Cl)cc2)cc1 (stereo not given) | 0%
O=C(Nc1ccc(OC2CCN(Cc3ccc(F)cc3)C2)c(Cl)c1)c1cccs1 (stereo not given) | 4.48%
COc1ccc(-c2nc(NC(=O)CS(=O)(=O)c3ccc(C)cc3)sc2C)cc1 | 4.48%
O=C(/C=C/c1ccc(Cl)c(Cl)c1)NCCCCCN1CCN(C(=O)Nc2cccc(F)c2)CC1 | 0.68%

SMILES | IFI
Nc1nc(Nc2ccc(Cl)cc2)nc2ccccc12 | 5.31%
CCOc1cc(C(=O)Nc2ccc3nc(N4CCN(C)CC4)cc(C)c3c2)cc(OCC)c1OCC | 2.82%
COc1ccc2nccc([C@@H](O)CN3CCC(NCCOc4cc(F)cc(F)c4)CC3)c2c1 | 0.7%
O=C(COc1ccccc1Cl)N1CCc2cc3nccc(N4CCN5CCC[C@H]5C4)c3cc21 | 1.49%
CC(C)CC(=O)N1CCNC[C@@H]1C(=O)NCc1ccc(Cl)c(Cl)c1 | -0%
COCCOCCOCCn1ccc2c3c(N)nc(N)nc3ccc21 | 2.54%
COc1ccc(CCN(C)CCCN2CCC(NC(=O)c3cccc4c(=O)c5ccccc5[nH]c34)CC2)cc1OC | 5.76%
Cc1ccc(-c2nc3cc(C(=O)NC4CCN(Cc5ccccc5)CC4)ccc3[nH]2)cc1 | 3%
CCN1CCCC1CN(Cc1ccc(-c2ccc(C(F)(F)F)cc2)cc1)C(=O)Cn1c(CCc2cccc(F)c2F)nc(=O)c2ccccc21 (stereo not given) | 4.65%
COc1ccc(CN2CCC(N3CCc4cc(NC(=O)c5cc(C)on5)ccc43)C2)cc1Cl (stereo not given) | 0%
O=C(/C=C/c1ccc(Cl)c(Cl)c1)NCCCCCN1CC[C@H](NC(=O)Nc2ccc(Oc3ccccc3)cc2)C1 | 7.8%
COc1ccc(-c2ccc(NC(=O)c3cccc(Cl)c3)cc2)cc1CN(C)CCN(C)C | 3.95%
CC(C)(C)c1cc(CN2CCN(Cc3ccccc3)CC2)cc(C(C)(C)C)c1O | 0.72%
NS(=O)(=O)c1cccc(-c2ccc3nccc(-c4cccc(S(N)(=O)=O)c4)c3c2)c1 | -0%
CN1CCC(NCc2ccc(-c3ccc(S(=O)(=O)NC4CCC4)s3)cc2)CC1 | 3.96%
CN(c1ccc(NC(=O)Nc2cc(C(F)(F)F)ccc2F)cc1)c1ccnc(NCCN2CCOCC2)n1 | 12.9%
c1ccc2c(NCCOCCNc3c4ccccc4nc4ccccc34)c3ccccc3nc2c1 | -0%
O=C(Nc1cccc(-c2nn3ncccc3c2-c2ccnc(Nc3ccccc3)n2)c1)c1c(F)cccc1F | 5.84%
c1cncc(CCNCc2ccc(-c3cccc(-c4nc5ccccc5[nH]4)c3)cc2)c1 | 4.81%
Clc1ccc2c(Cl)c(CNCCCNc3nc4ccccc4[nH]3)[nH]c2c1 | 7.52%
O=C(/C=C/c1ccc(Cl)c(Cl)c1)NCCCCCN1CCC(NC(=S)Nc2ccc(Cl)cc2)CC1 | 11.7%
CC(Oc1ccc(Cl)cc1Cl)c1nc(-c2ccc(NC(=O)c3ccco3)cc2)no1 (stereo not given) | 0.91%
FC(F)(F)c1cc(Nc2ccc(Oc3ccccc3)cc2)c2cc(-c3ccncc3)ccc2n1 | 2.13%

SMILES | IFI
CC(C)(C)c1ccc(O)c(CNC2CCCCC2)c1 | 1.52%
Cc1[nH]c(C)c(-c2ccc(OCc3ccc(OC(F)(F)F)cc3)nc2)c(=O)c1Br | 2.73%
COc1ccc(C(C(=O)NC2CCN(C[C@H](O)c3ccnc4ccc(OC)cc34)CC2)N2CCc3ccccc3C2)cc1 (stereo not given in full) | 0%
COc1cccc(-c2nn(C)c3sc(C(=O)NCCN4CCN(c5ccccc5F)CC4)cc23)c1 | 2.84%
Oc1cc(Nc2ccnc3ccc(I)cc23)c(F)cc1Cl | 5.97%
CN1Cc2ccc(NS(=O)(=O)c3ccc(-c4ccoc4)cc3)cc2C1 | 2.16%
Cc1cccc2nc(-c3cccc(-c4ccc(CNCCc5ccncc5)cc4)c3)[nH]c12 | 6.93%
CNCCNCc1cccc(-c2cccc(-c3nc4cc(C(F)(F)F)ccc4[nH]3)c2)c1 | 5.88%
O=S(=O)(NCCN1CCCC1)c1ccc(-c2ccccc2CNC2Cc3ccccc3C2)cc1 | 4.76%
Cc1cc(F)ccc1-c1nc(NCCCN2CCCC2=O)nc2c1ccc(=O)n2-c1c(F)cccc1F | 3.1%
Cc1ccc2[nH]ncc2c1N(CC1CCCCC1)c1ccnc(Nc2ccc(OCC(O)CN3CC=CCC3)cc2)n1 (stereo not given) | 12.6%
Clc1ncnc2ncn(Cc3cccc(Br)c3)c12 | 2.92%
COc1ccccc1N1CCN(Cc2c(O)ccc3cc(Br)ccc23)CC1 | 3.88%
O[C@H]1[C@H](OCc2ccc(-c3ccccc3)cc2)CC[C@@H]1N1CCCCC1 | 0%
Cc1cc2nc(-c3ccc(OCC(=O)NCc4cccc(C(F)(F)F)c4)cc3)[nH]c2cc1C | 1.52%
Cc1ccc(C(=O)Nc2cccc(CN3CCCN(Cc4ccc(O)cc4)CC3)c2)cc1 | -0%
OC(c1nnc(S)n1-c1ccccc1)C(O)c1nnc(S)n1-c1ccccc1 (stereo not given) | 4.29%
O=C(/C=C/c1cccc2ccccc12)NCCCCCN1CCC(c2c[nH]c3ccccc23)CC1 | 4.86%
COc1c(C2CCN(CCCCNC(=O)c3ccc(-c4ccc(C(=O)C(F)(F)F)cc4)cc3)CC2)ccc2c1CCCC2 | 14.1%
COc1ccc2[nH]c(C)cc(=NN=Cc3cccc(F)c3)c2c1 | 4.51%
CCn1c(-c2nonc2N)nc2c(-c3cccc(NC(=O)Nc4ccccc4Cl)c3)ncc(OCCCN)c21 | 18.2%
